The list shows a part of the results. Values come from read counts of a selection and are noisy.
The sequences below were run against T1, Drosophila AGO2 (FLAG-tagged, S2-R+ lysate) (UniProt Q9VUQ5) (assay: AGO2 loading enrichment factor (IP read count / input read count, not library-size normalised) (ratio); higher = more efficient loading into AGO2). Details: randomized region: 5' 5N of miR-317 loop.
T1 sequence: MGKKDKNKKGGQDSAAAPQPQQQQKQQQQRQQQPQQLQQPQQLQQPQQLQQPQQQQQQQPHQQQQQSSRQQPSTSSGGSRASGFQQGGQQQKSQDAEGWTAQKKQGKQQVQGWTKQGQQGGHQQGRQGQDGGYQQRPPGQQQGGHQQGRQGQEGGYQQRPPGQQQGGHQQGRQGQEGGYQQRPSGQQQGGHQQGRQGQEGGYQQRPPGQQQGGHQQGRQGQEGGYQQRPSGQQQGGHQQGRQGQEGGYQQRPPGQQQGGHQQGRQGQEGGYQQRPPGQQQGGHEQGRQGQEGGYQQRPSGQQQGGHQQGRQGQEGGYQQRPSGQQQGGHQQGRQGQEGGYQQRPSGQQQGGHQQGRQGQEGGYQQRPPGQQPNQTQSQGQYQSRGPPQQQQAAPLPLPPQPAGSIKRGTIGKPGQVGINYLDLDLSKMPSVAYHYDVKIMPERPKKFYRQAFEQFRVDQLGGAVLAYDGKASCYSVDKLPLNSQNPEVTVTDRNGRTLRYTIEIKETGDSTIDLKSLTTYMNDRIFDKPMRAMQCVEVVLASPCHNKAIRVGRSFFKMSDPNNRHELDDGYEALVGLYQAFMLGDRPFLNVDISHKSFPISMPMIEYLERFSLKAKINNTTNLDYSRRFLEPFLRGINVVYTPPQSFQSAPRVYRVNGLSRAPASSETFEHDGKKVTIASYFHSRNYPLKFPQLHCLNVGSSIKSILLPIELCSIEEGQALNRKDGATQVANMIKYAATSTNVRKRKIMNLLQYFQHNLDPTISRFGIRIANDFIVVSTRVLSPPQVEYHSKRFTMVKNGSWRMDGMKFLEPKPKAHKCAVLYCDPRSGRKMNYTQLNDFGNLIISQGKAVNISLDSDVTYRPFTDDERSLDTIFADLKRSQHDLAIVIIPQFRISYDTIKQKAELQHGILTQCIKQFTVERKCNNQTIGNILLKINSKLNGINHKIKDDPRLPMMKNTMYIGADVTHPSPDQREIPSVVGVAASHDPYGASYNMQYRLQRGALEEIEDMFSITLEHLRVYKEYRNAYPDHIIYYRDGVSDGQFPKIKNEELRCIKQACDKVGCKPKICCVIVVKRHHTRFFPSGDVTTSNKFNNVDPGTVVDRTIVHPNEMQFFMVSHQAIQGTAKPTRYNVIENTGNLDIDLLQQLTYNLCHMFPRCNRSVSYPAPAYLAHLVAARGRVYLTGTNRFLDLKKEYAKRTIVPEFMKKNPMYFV
Method: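 HISSA: 5'-phosphorylated, 32P-labelled 20-nt ssRNA oligos (miR-317 loop, first 5 nt randomized, constant 3' part TGAAATGCAAGCAAG as printed in methods; DNA letters for RNA) incubated 1 h at 25°C in lysate of S2-R+ cells expressing FLAG-AGO2. FLAG-AGO2 was immunopurified and bound oligos were sequenced after splinted ligation. Enrichment factor = IP read count / input read count (raw counts, not library-size normalised); single library, no replicates.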
For ATCATTGAAATGCAAGCAAG, the “AGO2 loading enrichment factor” value was 0.561.
With CTCCATGAAATGCAAGCAAG the “AGO2 loading enrichment factor” value was 0.442.
With CGAGATGAAATGCAAGCAAG the “AGO2 loading enrichment factor” value was 0.443.
In the case of CTAGGTGAAATGCAAGCAAG, the “AGO2 loading enrichment factor” value is reported as 0.484.
TAGGTTGAAATGCAAGCAAG was tested, and the “AGO2 loading enrichment factor” value was 0.466.
In the case of CTACATGAAATGCAAGCAAG, the “AGO2 loading enrichment factor” value is reported as 0.216.
CCAAATGAAATGCAAGCAAG was tested, and the “AGO2 loading enrichment factor” value was 0.435.
In the case of ACGTCTGAAATGCAAGCAAG, the “AGO2 loading enrichment factor” value is reported as 0.489.
For CTCAGTGAAATGCAAGCAAG, the “AGO2 loading enrichment factor” value was 0.495.
With GAGAGTGAAATGCAAGCAAG the “AGO2 loading enrichment factor” value was 1.06.
With AGCGATGAAATGCAAGCAAG the “AGO2 loading enrichment factor” value was 0.385.
In the case of TGCCTTGAAATGCAAGCAAG, the “AGO2 loading enrichment factor” value is reported as 0.181.
For TTTTATGAAATGCAAGCAAG, the “AGO2 loading enrichment factor” value was 0.444.
ATAGGTGAAATGCAAGCAAG was tested, and the “AGO2 loading enrichment factor” value was 0.69.
In the case of TTACTTGAAATGCAAGCAAG, the “AGO2 loading enrichment factor” value is reported as 0.408.
In the case of CGTCATGAAATGCAAGCAAG, the “AGO2 loading enrichment factor” value is reported as 0.398.
CTGCATGAAATGCAAGCAAG was tested, and the “AGO2 loading enrichment factor” value was 0.136.
In the case of GGTATTGAAATGCAAGCAAG, the “AGO2 loading enrichment factor” value is reported as 0.443.
With GCAAATGAAATGCAAGCAAG the “AGO2 loading enrichment factor” value was 0.262.
In the case of CGTAGTGAAATGCAAGCAAG, the “AGO2 loading enrichment factor” value is reported as 0.415.
With CTGGATGAAATGCAAGCAAG the “AGO2 loading enrichment factor” value was 0.632.
In the case of GGGCCTGAAATGCAAGCAAG, the “AGO2 loading enrichment factor” value is reported as 1.24.
CTTAATGAAATGCAAGCAAG was tested, and the “AGO2 loading enrichment factor” value was 0.281.
For GTCTATGAAATGCAAGCAAG, the “AGO2 loading enrichment factor” value was 0.608.
In the case of GTTCCTGAAATGCAAGCAAG, the “AGO2 loading enrichment factor” value is reported as 0.442.
In the case of GGGGTTGAAATGCAAGCAAG, the “AGO2 loading enrichment factor” value is reported as 8.37.
For CACATTGAAATGCAAGCAAG, the “AGO2 loading enrichment factor” value was 0.472.
For AATTGTGAAATGCAAGCAAG, the “AGO2 loading enrichment factor” value was 0.0859.
GTGCATGAAATGCAAGCAAG was tested, and the “AGO2 loading enrichment factor” value was 0.25.
For ACAAATGAAATGCAAGCAAG, the “AGO2 loading enrichment factor” value was 0.478.
In the case of CCTTCTGAAATGCAAGCAAG, the “AGO2 loading enrichment factor” value is reported as 0.335.
AGCTGTGAAATGCAAGCAAG was tested, and the “AGO2 loading enrichment factor” value was 0.224.
For AACGATGAAATGCAAGCAAG, the “AGO2 loading enrichment factor” value was 0.423.
With TGATGTGAAATGCAAGCAAG the “AGO2 loading enrichment factor” value was 0.315.
For AGCGTTGAAATGCAAGCAAG, the “AGO2 loading enrichment factor” value was 0.318.
In the case of CAGGATGAAATGCAAGCAAG, the “AGO2 loading enrichment factor” value is reported as 0.736.
With GCCTGTGAAATGCAAGCAAG the “AGO2 loading enrichment factor” value was 0.0181.
ATAAATGAAATGCAAGCAAG was tested, and the “AGO2 loading enrichment factor” value was 0.505.
GGATATGAAATGCAAGCAAG was tested, and the “AGO2 loading enrichment factor” value was 0.638.
For GCTACTGAAATGCAAGCAAG, the “AGO2 loading enrichment factor” value was 0.192.
With CCTGCTGAAATGCAAGCAAG the “AGO2 loading enrichment factor” value was 0.123.
In the case of TGGTGTGAAATGCAAGCAAG, the “AGO2 loading enrichment factor” value is reported as 0.739.
In the case of GGCAATGAAATGCAAGCAAG, the “AGO2 loading enrichment factor” value is reported as 0.335.
For GTACATGAAATGCAAGCAAG, the “AGO2 loading enrichment factor” value was 0.444.
With CGCTGTGAAATGCAAGCAAG the “AGO2 loading enrichment factor” value was 0.396.
For AGATATGAAATGCAAGCAAG, the “AGO2 loading enrichment factor” value was 0.405.
For CTAAATGAAATGCAAGCAAG, the “AGO2 loading enrichment factor” value was 0.45.
For AGTGGTGAAATGCAAGCAAG, the “AGO2 loading enrichment factor” value was 1.46.
For TTTTCTGAAATGCAAGCAAG, the “AGO2 loading enrichment factor” value was 1.03.
For TCACTTGAAATGCAAGCAAG, the “AGO2 loading enrichment factor” value was 0.111.
For AAAGGTGAAATGCAAGCAAG, the “AGO2 loading enrichment factor” value was 0.728.
TACGGTGAAATGCAAGCAAG was tested, and the “AGO2 loading enrichment factor” value was 0.41.
In the case of GGCATTGAAATGCAAGCAAG, the “AGO2 loading enrichment factor” value is reported as 0.25.
GTGCCTGAAATGCAAGCAAG was tested, and the “AGO2 loading enrichment factor” value was 0.718.
With CCTGATGAAATGCAAGCAAG the “AGO2 loading enrichment factor” value was 0.323.
With ATGGTTGAAATGCAAGCAAG the “AGO2 loading enrichment factor” value was 0.567.
In the case of TTCGGTGAAATGCAAGCAAG, the “AGO2 loading enrichment factor” value is reported as 0.624.
In the case of TAAGTTGAAATGCAAGCAAG, the “AGO2 loading enrichment factor” value is reported as 0.306.
With GCATCTGAAATGCAAGCAAG the “AGO2 loading enrichment factor” value was 0.106.
In the case of AATGGTGAAATGCAAGCAAG, the “AGO2 loading enrichment factor” value is reported as 0.462.
For GTCATTGAAATGCAAGCAAG, the “AGO2 loading enrichment factor” value was 0.508.
ACAACTGAAATGCAAGCAAG was tested, and the “AGO2 loading enrichment factor” value was 0.435.
In the case of AGGTTTGAAATGCAAGCAAG, the “AGO2 loading enrichment factor” value is reported as 0.26.
For CCCCCTGAAATGCAAGCAAG, the “AGO2 loading enrichment factor” value was 0.243.
CATCGTGAAATGCAAGCAAG was tested, and the “AGO2 loading enrichment factor” value was 0.274.
TTCTCTGAAATGCAAGCAAG was tested, and the “AGO2 loading enrichment factor” value was 0.495.
In the case of CGGCGTGAAATGCAAGCAAG, the “AGO2 loading enrichment factor” value is reported as 0.602.
For TTCAGTGAAATGCAAGCAAG, the “AGO2 loading enrichment factor” value was 0.48.
TGCTATGAAATGCAAGCAAG was tested, and the “AGO2 loading enrichment factor” value was 0.146.
AAATATGAAATGCAAGCAAG was tested, and the “AGO2 loading enrichment factor” value was 0.447.
CTAATTGAAATGCAAGCAAG was tested, and the “AGO2 loading enrichment factor” value was 0.423.
For GACAGTGAAATGCAAGCAAG, the “AGO2 loading enrichment factor” value was 0.346.
In the case of GGATTTGAAATGCAAGCAAG, the “AGO2 loading enrichment factor” value is reported as 0.517.
For AACACTGAAATGCAAGCAAG, the “AGO2 loading enrichment factor” value was 0.41.
CCATATGAAATGCAAGCAAG was tested, and the “AGO2 loading enrichment factor” value was 0.515.
TTCATTGAAATGCAAGCAAG was tested, and the “AGO2 loading enrichment factor” value was 0.511.
CAATTTGAAATGCAAGCAAG was tested, and the “AGO2 loading enrichment factor” value was 0.303.
With TCGTTTGAAATGCAAGCAAG the “AGO2 loading enrichment factor” value was 0.177.
ATGTCTGAAATGCAAGCAAG was tested, and the “AGO2 loading enrichment factor” value was 0.407.
For TCACCTGAAATGCAAGCAAG, the “AGO2 loading enrichment factor” value was 0.269.
TGAAATGAAATGCAAGCAAG was tested, and the “AGO2 loading enrichment factor” value was 0.504.
With GCAAGTGAAATGCAAGCAAG the “AGO2 loading enrichment factor” value was 0.12.
With GTTACTGAAATGCAAGCAAG the “AGO2 loading enrichment factor” value was 0.383.
With AGGCATGAAATGCAAGCAAG the “AGO2 loading enrichment factor” value was 0.302.
CTACGTGAAATGCAAGCAAG was tested, and the “AGO2 loading enrichment factor” value was 0.533.
For GTCCGTGAAATGCAAGCAAG, the “AGO2 loading enrichment factor” value was 0.828.
For CGTTATGAAATGCAAGCAAG, the “AGO2 loading enrichment factor” value was 0.333.
For CGTTGTGAAATGCAAGCAAG, the “AGO2 loading enrichment factor” value was 0.656.
In the case of ATTTATGAAATGCAAGCAAG, the “AGO2 loading enrichment factor” value is reported as 0.421.
In the case of CACCGTGAAATGCAAGCAAG, the “AGO2 loading enrichment factor” value is reported as 0.319.
In the case of GTGAGTGAAATGCAAGCAAG, the “AGO2 loading enrichment factor” value is reported as 0.343.
ACCCGTGAAATGCAAGCAAG was tested, and the “AGO2 loading enrichment factor” value was 0.47.
In the case of AGGCTTGAAATGCAAGCAAG, the “AGO2 loading enrichment factor” value is reported as 0.184.
In the case of AGGGATGAAATGCAAGCAAG, the “AGO2 loading enrichment factor” value is reported as 2.69.
In the case of TTGTATGAAATGCAAGCAAG, the “AGO2 loading enrichment factor” value is reported as 0.117.
In the case of AGATTTGAAATGCAAGCAAG, the “AGO2 loading enrichment factor” value is reported as 0.363.
For ATATATGAAATGCAAGCAAG, the “AGO2 loading enrichment factor” value was 0.515.
In the case of CATCTTGAAATGCAAGCAAG, the “AGO2 loading enrichment factor” value is reported as 0.0602.
For TATGATGAAATGCAAGCAAG, the “AGO2 loading enrichment factor” value was 0.335.

— the supplement of paper PMC6451100
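Also: Per-sequence enrichment computed with FASTAptamer, counting only reads that carry the expected constant 3′ region.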
